About 14,000 (4.5%) of roughly 310,000 compounds showed an effect of 50% or more. Effects have a minus sign here. Some of the results follow.
molecular target: human ether-à-go-go-related gene (hERG) potassium channel (human, UniProt Q12809); test: primary screen, population patch clamp on CHO cells stably expressing hERG
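Note: peak tail current of the secondary pulse compared with the same well before compound.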

Chain of human ether-à-go-go-related gene (hERG) potassium channel (Q12809 whole entry, looked up): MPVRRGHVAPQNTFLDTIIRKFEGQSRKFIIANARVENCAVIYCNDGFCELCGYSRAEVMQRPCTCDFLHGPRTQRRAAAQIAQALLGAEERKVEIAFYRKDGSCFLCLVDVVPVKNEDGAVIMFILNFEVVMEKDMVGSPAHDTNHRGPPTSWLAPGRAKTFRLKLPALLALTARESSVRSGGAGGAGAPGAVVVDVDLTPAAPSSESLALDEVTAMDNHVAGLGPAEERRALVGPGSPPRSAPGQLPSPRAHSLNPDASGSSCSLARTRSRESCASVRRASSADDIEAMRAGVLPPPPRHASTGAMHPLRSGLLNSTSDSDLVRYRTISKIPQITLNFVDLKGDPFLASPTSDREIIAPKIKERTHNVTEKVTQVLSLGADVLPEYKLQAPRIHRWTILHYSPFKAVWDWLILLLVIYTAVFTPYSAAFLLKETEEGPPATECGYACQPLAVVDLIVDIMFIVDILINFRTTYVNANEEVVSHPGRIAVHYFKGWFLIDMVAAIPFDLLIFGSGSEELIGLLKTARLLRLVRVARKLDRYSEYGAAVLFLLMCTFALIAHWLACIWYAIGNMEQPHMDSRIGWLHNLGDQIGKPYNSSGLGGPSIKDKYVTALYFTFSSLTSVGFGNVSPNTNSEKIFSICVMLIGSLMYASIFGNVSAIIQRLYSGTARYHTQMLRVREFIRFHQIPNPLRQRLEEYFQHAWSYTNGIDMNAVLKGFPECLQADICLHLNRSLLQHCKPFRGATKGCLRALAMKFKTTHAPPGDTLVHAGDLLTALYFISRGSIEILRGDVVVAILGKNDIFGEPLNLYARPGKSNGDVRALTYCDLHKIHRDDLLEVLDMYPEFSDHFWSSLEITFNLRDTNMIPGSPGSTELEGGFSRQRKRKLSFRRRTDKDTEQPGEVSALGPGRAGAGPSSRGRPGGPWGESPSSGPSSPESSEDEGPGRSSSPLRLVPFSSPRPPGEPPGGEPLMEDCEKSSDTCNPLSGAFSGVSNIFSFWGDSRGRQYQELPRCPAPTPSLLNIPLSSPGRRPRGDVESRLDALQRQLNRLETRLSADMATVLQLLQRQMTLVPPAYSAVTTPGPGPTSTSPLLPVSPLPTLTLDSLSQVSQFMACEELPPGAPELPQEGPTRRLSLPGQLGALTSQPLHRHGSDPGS

Row | Compound | hERG current change (%, negative = inhibition) at 10uM
1 | CC(C)OP(=O)(Oc1ccc(C(O)C(Cl)(Cl)Cl)cc1)OC(C)C (stereo not drawn) | 6.54%
2 | O=[N+]([O-])C(=c1ccc2c(c1)N1C3=C(CCCC3)CC3CCCCC31N=2)[N+](=O)[O-] (stereo not drawn) | 14.5%
3 | CCCCCn1c(SCc2cccc(C)c2)nc2c1c(=O)[nH]c(=O)n2C | 15.5%
4 | CCOc1ccccc1C(=O)N(Cc1ccccc1)Cc1cc2cc3c(cc2[nH]c1=O)OCCO3 | -2.49%
5 | CCCS(=O)(=O)c1cnc(C2COc3ccccc3O2)nc1N (stereo not drawn) | 4.08%
6 | COc1cc(OC)cc(C(=O)Nn2c(C)nc3ccccc3c2=O)c1 | 9.93%
7 | COc1cccc(C(=O)COc2cccc(NC(=O)c3cccc([N+](=O)[O-])c3)c2)c1 | -11.2%
8 | O=C(N[C@H]1CCC(=O)N([C@H](CSc2ccccc2)Cc2ccccc2)CC1)OCc1ccccc1 | -37.6%
9 | CCc1c(C)sc(NC(=O)c2cc(-c3ccc(OC)c(OC)c3)on2)c1C#N | 14%
10 | O=C(NCC1CCCO1)C1CCN(C2CCN(Cc3ccco3)CC2)CC1 (stereo not drawn) | -51%
11 | COc1cc(NC(=O)COc2ccccc2[N+](=O)[O-])ccc1NC(=O)c1ccco1 | -14.3%
12 | O=C(Nc1ccc(Cl)cc1F)C1CCN(S(=O)(=O)c2cccc3nonc23)CC1 | 16.4%
13 | Cn1c(SCc2ccccn2)nnc1-c1ccccc1 | 18.2%
14 | CCC(C)N1CCC(Oc2ccc(C(=O)NCc3ccccn3)cc2)CC1 (stereo not drawn) | 6.23%
15 | Cc1nn(C)c(C)c1/C=N/N=C1\CCC2C3CCc4cc(O)ccc4C3CCC12C (stereo not drawn) | 7.41%
16 | CCCCn1c(N)c(N(CC(C)C)C(=O)C2CC(=O)N(Cc3ccco3)C2)c(=O)[nH]c1=O (stereo not drawn) | -20.9%
17 | O=C(O)c1cn(Cc2ccccc2)c2ccccc2c1=O | -79.3%
18 | COc1ccc(OC)c(S(=O)(=O)N2CCC(C(=O)Nc3cccc(C)c3)CC2)c1 | -38.5%
19 | CC(C)(C)c1ccc(C(=O)CC(=O)c2cc(Cl)ccc2O)cc1 | -19.9%
20 | Cc1cccc(C)c1NC(=O)C1CC(=O)N(C(C)C)C1 (stereo not drawn) | 6.92%
21 | N#CCC(=O)Nc1ccc(C(=O)OCC(=O)N(C2CCCCC2)C2CCCCC2)cc1 | 12.2%
22 | Cc1ccc(C(=O)N2CCCC(C(=O)c3ccc(Cl)cc3C)C2)cn1 (stereo not drawn) | -1.41%

Row | Compound | hERG current change (%, negative = inhibition) at 10uM
23 | Cn1c(SCC(=O)N2CCCC2)nc2ccccc2c1=O | -33.3%
24 | CSc1cccc(NS(=O)(=O)c2ccc(-c3coc(C)n3)cc2)c1 | 22.6%
25 | Cc1ccc(NC(=O)CCn2ccc([N+](=O)[O-])n2)nc1 | 1.42%
26 | COc1ccc(S(=O)(=O)N(C)c2ccc(C(=O)NCc3ccccn3)cc2)cc1 | 0.789%
27 | O=C(Nc1ccc(Cl)cc1)Nc1nccs1 | -30.1%
28 | Cc1cc2cc(CNS(=O)(=O)c3ccc4ccccc4c3)ccc2n1C | 13.1%
29 | COc1ccc(NC(=O)c2cc3nc(-c4ccccc4)cc(-c4ccccc4)n3n2)c(OC)c1 | 7.38%
30 | Cc1noc(C)c1COc1ccc(C(=O)NCCc2ccccn2)cc1 | 29%
31 | CC(=O)Nc1ccc(S(=O)(=O)NCCc2cc3c(C)ccc(C)c3[nH]c2=O)cc1 | -1.92%
32 | CCC(C)NS(=O)(=O)c1ccc(NC(C)=O)cc1 (stereo not drawn) | 0.712%
33 | CCN1C(=O)NC(c2ccc(Cl)cc2)C2=C1CCCC2=O (stereo not drawn) | 9.6%
34 | Cc1ccc(/C=C/C(=O)NCc2ccc3c(c2)OCO3)o1 | -17.6%
35 | COc1ccc(-n2nc(C(C)=O)c(=O)[nH]c2=O)cc1 | 23.8%
36 | CCCCN(C(=O)c1ccc(C)cc1)c1c(N)n(CCC)c(=O)[nH]c1=O | 13.4%
37 | O=C(NCCOc1ccccc1Cl)c1cccc2c1C(=O)c1ccc(Cl)cc1S2(=O)=O | 8.93%
38 | COc1ccc(C(=O)Nc2ncc3c(n2)-c2ccccc2CC3)cc1 | -40.5%
39 | O=C(c1ccc(NC(=S)Nc2ccc(Cl)c(Cl)c2)cc1)N1CCCC1 | -34.8%
40 | CCOC(=O)c1sc2nc(CSCC(=O)OCc3ccc(C(=O)OC)o3)[nH]c(=O)c2c1C | -8.69%
41 | Cc1ccc(S(=O)(=O)N2CCN(C(=O)c3ccc(OCc4c(C)noc4C)cc3)CC2)cc1 | 4.68%
42 | NS(=O)(=O)c1cccc(NC(=O)COC(=O)Cn2cnc3ccccc32)c1 | 19.8%
43 | CC(=O)OC1CC[C@]2(C#N)[C@H]3CC[C@]4(C)[C@H](C5C=CC(=O)O5)CCC4(O)C3CCC2(O)C1 (stereo partly drawn) | 12.9%
44 | Cc1oc(-c2cc(Cl)cc(Cl)c2)cc1C(=O)NCCc1ccccc1 | 34.4%

Row | Compound | hERG current change (%, negative = inhibition) at 10uM
45 | COc1ccc(NC2CCCN(C(=O)c3ccc(CSC)o3)C2)cc1OC (stereo not drawn) | -12.6%
46 | C=CCn1c(=NC(=O)C2CC2)sc2cc(NC(C)=O)ccc21 | -1.61%
47 | O=C(O)c1[nH]c2ccccc2c1CC(=O)N1CCN(c2ccccc2)CC1 | 30%
48 | COC(=O)c1cccc(CSc2nc(-c3ccccc3)c(C#N)c(=O)[nH]2)c1 | 16.8%
49 | CCOP(=O)(OCC)C(Nc1cccc(C(F)(F)F)c1)c1ccc(C)cc1 (stereo not drawn) | 11.9%
50 | COc1ccc(-c2nc3ccccc3o2)cc1OC | -2.33%
51 | CCOC(=O)N/N=C\c1ccc(-c2cccc(C(F)(F)F)c2)o1 | -2.79%
52 | CSc1ccccc1NC(=O)CN(C)Cc1c(O)ccc2ccccc12 | 7.52%
53 | CC(C)(C)/C(Cn1cncn1)=N\OC(=O)Nc1ccc(Cl)cc1 | -10.6%
54 | Cc1cc(F)ccc1S(=O)(=O)Nc1ccc(C(=O)N2CCCCCC2)cc1 | -27.6%
55 | Cc1ccnc(NC(=O)c2ccc(OCC3CCCO3)cc2)c1 (stereo not drawn) | -3.31%
56 | O=c1ccn(CCCBr)c(=O)[nH]1 | 18%
57 | CCC(C)NC(=S)Nc1ccccc1OC (stereo not drawn) | 8.17%
58 | COC(=O)C1(C)NC(c2ccc(OC)cc2)C2C(=O)N(c3ccccc3)C(=O)C21 (stereo not drawn) | 3.89%
59 | CCCCC(NC(=O)c1cccc(Br)c1)C(=O)O (stereo not drawn) | 9.42%
60 | CCOc1ccccc1C(=O)NC(CO)C(=O)O (stereo not drawn) | -10.1%
61 | C=CCn1c(-c2ccccc2OC)n[nH]c1=S | 28.2%
62 | CN(C(=O)Nc1ccccc1)n1cnc2ccccc2c1=O | 4.3%
63 | CC(=O)CCC(=O)NC1CCCc2c1cnn2-c1ccc(C(C)(C)C)cc1 (stereo not drawn) | -1.5%
64 | COc1cnc(-c2ccccc2)nc1Sc1ccccc1 | 39.9%
65 | COc1cc(C2C(C#N)=C(N)N(N(C)C)C3=C2C(=O)CCC3)ccc1O (stereo not drawn) | 13.8%
66 | Cc1nc(SCC(=O)N2CCCCCC2)[nH]c(=O)c1C | 19.5%

Row | Compound | hERG current change (%, negative = inhibition) at 10uM
67 | CCN(CC)S(=O)(=O)c1ccc(/C(O)=C2/C(=O)C(=O)N(CCOC)C2c2ccccc2)cc1 (stereo not drawn) | 11.6%
68 | O=C(CCC(=O)N1CCN(c2ccccn2)CC1)c1ccc(Cl)s1 | -36%
69 | N#Cc1c(-c2ccccc2)c(-c2ccccc2)nn(CC(=O)NNC(=O)Nc2ccccc2)c1=O | 27.8%
70 | Nc1[nH]n2c(=O)cc(-c3ccccc3)nc2c1N=Nc1ccc(S(N)(=O)=O)cc1 | 1.01%
71 | CCOC(=O)CSc1c(-c2cccs2)[nH]c2ccccc12 | -1.44%
72 | CCOc1ccccc1NC(=O)COc1ccc2ccc(=O)oc2c1 | 13%
73 | CC(=O)NCC1=C(NC(C)=O)C2CC1C(C)(C)C2C (stereo not drawn) | 18.9%
74 | O=C(NCCN1CCOCC1)c1cc(Br)ccc1Cl | 15.2%
75 | CCOc1ccc2nc(N(CCCN(C)C)C(=O)c3ccc(S(=O)(=O)N4CCCC4)cc3)sc2c1.Cl | -70.4%
76 | COc1ccc(S(=O)(=O)NCC(=O)O)cc1C(=O)NC1CCCCC1 | 35.2%
77 | O=C(COC(=O)CCNS(=O)(=O)c1cccs1)Nc1cc(C(F)(F)F)ccc1Cl | -26.1%
78 | COc1ccc(O)c(/C=N/NC(=O)c2ccc(N3CCCC3=O)cc2)c1 | -0.354%
79 | Cn1cc(S(=O)(=O)N2CCc3ccccc32)cc1C(=O)NC1CCCCC1 | 2.95%
80 | CCOC(=O)C1=C(N)N(c2ccccc2)C2=C(C(=O)CCC2)C1c1cccnc1 (stereo not drawn) | -4.55%
81 | CN(C)C=NCCn1c(N2CCOCC2)nc2c1c(=O)n(C)c(=O)n2C.Cl | -2.83%
82 | CCCCn1cc([N+](=O)[O-])nc1C | 21%
83 | CC1CCC2(CC1)NC(=O)N(CC(=O)Nc1ccc(N3CCOCC3)cc1)C2=O (stereo not drawn) | -9.35%
84 | O=C(N=C1SC2CS(=O)(=O)CC2N1c1cccc(F)c1)C1CC1 (stereo not drawn) | 26.6%
85 | Cc1ccc(-c2onc(C)c2C)cc1S(=O)(=O)N1CCOc2ccccc21 | 9.26%
86 | CCNC(=O)NC(=O)C(C)OC(=O)c1oc2ccc(OCC)cc2c1C (stereo not drawn) | 2.31%
87 | CCC(C)(C)NC(=O)CN(C(=O)CCC(=O)Nc1nccs1)c1cccc(C)c1C | 0.481%

Source: publication PMC4336329 (PLoS ONE, 2015)
